Reference: PubChem BioAssay (Tox21)
The shares of active, inactive and inconclusive entries below differ from those in the screen. Potencies of inconclusive entries are doubtful fits and often do not repeat. The source holds several records for some structures; these can differ, active in one and inactive in another. Activity calls are given as the source filed them. Calls come from the whole dose curve; as a rule, active = well fitted curve in the direction sought with a large enough effect in the repeat runs; inconclusive = weak or mixed curves; inactive = no such curve, though single readings can be large; an effect the other way counts as inactive or inconclusive.

Target: Cytochrome P450 1A2 (Homo sapiens) (UniProt P05177)
Assay: Cytochrome P450 Family 1 Subfamily A Member 2 (CYP1A2) small molecule antagonists: luciferase reporter qHTS assay (AID 1671199)
Conditions: P450-Glo CYP1A2 enzyme, luciferin luminescence, 1 h; series mostly up to 115 µM; activity change, negative = inhibition: at the top concentration
Summary of the method: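 P450-Glo CYP1A2 enzyme–proluciferin substrate mix with compound 10 min at room temperature, then NADPH regeneration 1 h at room temperature. Luciferin detection reagent added, luminescence read after 20 min; furafylline positive control.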
% is set by controls: 0 for no effect and ±100 for the full control effect; potency is the fitted concentration of half-maximal effect; tags give direction and shape of the fitted curve.
Note: nearly all actives have a fitted effect of over 50% in size.

UniProt P05177, sequence (P05177 whole entry, looked up): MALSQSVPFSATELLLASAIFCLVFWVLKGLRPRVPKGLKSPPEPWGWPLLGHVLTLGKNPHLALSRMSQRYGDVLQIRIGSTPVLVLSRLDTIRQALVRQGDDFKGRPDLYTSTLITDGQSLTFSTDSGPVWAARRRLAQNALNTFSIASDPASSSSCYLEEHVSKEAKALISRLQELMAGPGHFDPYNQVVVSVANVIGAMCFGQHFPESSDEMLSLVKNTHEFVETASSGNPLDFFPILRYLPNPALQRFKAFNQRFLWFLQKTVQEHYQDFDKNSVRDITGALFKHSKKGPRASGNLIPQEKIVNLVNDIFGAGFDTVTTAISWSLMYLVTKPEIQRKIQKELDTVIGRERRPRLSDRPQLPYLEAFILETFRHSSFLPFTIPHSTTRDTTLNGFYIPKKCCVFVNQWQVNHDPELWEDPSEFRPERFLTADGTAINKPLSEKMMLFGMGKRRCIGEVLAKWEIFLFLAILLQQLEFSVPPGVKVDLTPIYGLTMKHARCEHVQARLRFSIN

Row | SMILES | Potency | activity change, negative = inhibition
1 | CNCCS(=O)(=O)O | active: 35.9 µM | –
2 | CC(C)=NNC(N)=S | active: 71 µM | –
3 | O=C(Oc1ccccc1)c1ccccc1 | inconclusive: 71 µM [inhibitor, partial curve] | –
4 | O=C(O)c1cccnc1Nc1cccc(C(F)(F)F)c1 | inconclusive: 30.9 µM [inhibitor, partial curve] | –
5 | Cc1ccc(/C=N/n2c(-c3ccccc3)csc2=S)cc1 | active: 7.76 µM | –
6 | CCc1ccc(CCOc2ccc(CC3SC(=O)NC3=O)cc2)nc1 (stereo not drawn) | inconclusive: 79.6 µM [inhibitor, partial curve] and inactive | –
7 | Cc1c(-c2ccccc2)oc2c(C(=O)OCCN3CCCCC3)cccc2c1=O | inconclusive: 18.2 µM [inhibitor, partial curve] | –
8 | C#C[C@]1(O)CC[C@H]2[C@@H]3CCC4=CC(=O)CC[C@@H]4[C@H]3CC[C@@]21C | inactive | –
9 | O=C1[C@H](CC[C@H](O)c2ccc(F)cc2)[C@@H](c2ccc(O)cc2)N1c1ccc(F)cc1 | inconclusive: 21.9 µM [inhibitor, partial curve] | –
10 | Nc1ccc(Oc2cccc(Oc3ccc(N)cc3)c2)cc1 | – | inactive: 39.7%
11 | CCCCOC(=O)C(C)Oc1ccc(Oc2ccc(C(F)(F)F)cn2)cc1 (stereo not drawn) | active: 22.4 µM | –
12 | O=[N+]([O-])c1ccc(O)cc1C(F)(F)F | active: 35.6 µM | –
13 | C[C@]12CCC(=O)C=C1[C@@H]1C[C@@H]1[C@H]1[C@@H]3[C@@H]4C[C@@H]4[C@@]4(CCC(=O)O4)[C@@]3(C)CC[C@@H]12 | – | inactive: -1.04% [at 53 µM]
14 | CCCCCCCCCCCCOCCOS(=O)(=O)O | inconclusive: 79.6 µM [inhibitor, single point] | –
15 | COc1ccc2c(c1)c(CC(=O)O)c(C)n2C(=O)c1ccc(Cl)cc1 | inconclusive: 63.3 µM [inhibitor, partial curve, poor fit] | –
16 | F[B-](F)(F)F | inconclusive: 65.9 µM [inhibitor, partial curve, poor fit] | –
17 | CCCCCC(N)=O | inconclusive: 61.7 µM [inhibitor, partial curve] and inactive | –

Target: Voltage-gated inwardly rectifying potassium channel KCNH2 (Homo sapiens) (UniProt Q12809)
Assay: Human Ether-a-go-go-Related Gene (hERG) channel small molecule antagonists: fluorescence cell-based qHTS assay (AID 1671200);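 for activity change, negative = inhibition: hERG-expressing U2OS cells given a thallium stimulus after FluxOR II dye loading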
Conditions: hERG-U2OS cells, FluxOR thallium flux fluorescence; series mostly up to 76.8 µM; activity change, negative = inhibition: at the top concentration
Summary of the method: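 Channel function was assessed by thallium flux. Cells seeded the previous day and kept at 37 C took up FluxOR II dye over 1 h in the dark at room temperature, then sat another 10 min before stimulation.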

UniProt Q12809, sequence (Q12809 whole entry, looked up): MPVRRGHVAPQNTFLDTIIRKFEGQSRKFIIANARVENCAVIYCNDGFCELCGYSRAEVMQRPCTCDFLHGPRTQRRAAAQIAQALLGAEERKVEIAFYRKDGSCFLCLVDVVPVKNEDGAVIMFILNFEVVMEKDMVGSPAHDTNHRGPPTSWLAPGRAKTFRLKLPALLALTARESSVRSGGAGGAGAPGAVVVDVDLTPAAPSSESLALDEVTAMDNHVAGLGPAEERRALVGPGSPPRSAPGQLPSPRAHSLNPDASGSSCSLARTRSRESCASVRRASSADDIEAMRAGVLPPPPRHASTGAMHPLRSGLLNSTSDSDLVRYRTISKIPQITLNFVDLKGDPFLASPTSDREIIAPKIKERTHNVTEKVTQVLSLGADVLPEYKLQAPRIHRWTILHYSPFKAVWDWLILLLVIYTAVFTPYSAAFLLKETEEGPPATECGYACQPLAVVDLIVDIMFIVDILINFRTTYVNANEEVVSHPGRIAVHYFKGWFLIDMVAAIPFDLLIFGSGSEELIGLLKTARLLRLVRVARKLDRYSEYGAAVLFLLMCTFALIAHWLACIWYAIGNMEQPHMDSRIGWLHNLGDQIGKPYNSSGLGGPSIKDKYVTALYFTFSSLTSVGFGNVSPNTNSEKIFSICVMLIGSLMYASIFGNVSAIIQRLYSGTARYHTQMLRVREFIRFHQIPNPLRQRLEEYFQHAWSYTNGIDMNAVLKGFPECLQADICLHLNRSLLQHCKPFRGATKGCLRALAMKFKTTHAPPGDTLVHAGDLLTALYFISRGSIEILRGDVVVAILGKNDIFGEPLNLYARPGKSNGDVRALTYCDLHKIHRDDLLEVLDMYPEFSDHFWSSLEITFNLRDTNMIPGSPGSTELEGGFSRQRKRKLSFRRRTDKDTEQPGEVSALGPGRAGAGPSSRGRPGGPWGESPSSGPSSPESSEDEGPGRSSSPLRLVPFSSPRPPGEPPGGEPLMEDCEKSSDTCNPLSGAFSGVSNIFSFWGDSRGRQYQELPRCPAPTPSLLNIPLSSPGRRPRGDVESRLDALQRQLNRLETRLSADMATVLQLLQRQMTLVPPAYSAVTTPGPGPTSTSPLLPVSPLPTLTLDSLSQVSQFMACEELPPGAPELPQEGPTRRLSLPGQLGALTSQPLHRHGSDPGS

Row | SMILES | activity change, negative = inhibition | Potency
18 | CC(C)C[C@H](NC(=O)[C@H](Cc1ccccc1)NC(=O)c1cnccn1)B(O)O | inactive: -5.93% [at 35.3 µM] | –
19 | Cc1c(-c2ccccc2)oc2c(C(=O)OCCN3CCCCC3)cccc2c1=O | – | inconclusive: 19 µM [inhibitor, partial curve]
20 | O=C1[C@H](CC[C@H](O)c2ccc(F)cc2)[C@@H](c2ccc(O)cc2)N1c1ccc(F)cc1 | – | inconclusive: 21.3 µM [inhibitor, partial curve]
21 | CCCCCOC(=O)c1ccc(O)cc1 | – | inconclusive: 49.6 µM [inhibitor, partial curve, poor fit]
22 | CCCCOC(=O)C(C)Oc1ccc(Oc2ccc(C(F)(F)F)cn2)cc1 (stereo not drawn) | – | active: 24.5 µM
23 | Nc1ccc(C(=O)OCCCOC(=O)c2ccc(N)cc2)cc1 | – | inconclusive: 21.9 µM [inhibitor, partial curve]
